Data reported in the supplement of paper PMC8813932.
Where a name gives a salt, the structure may show the parent alone. The list shows a part of the results. Most values come without repeats; read them as rough.

What follows are compounds tested on Ov4Cis (assay: log2 surviving fraction relative to plate median (drug vs vehicle, or drug+dl922-947 vs dl922-947 alone); ovarian cancer lines: OVCAR4 is platinum-sensitive while Ov4Cis resists cisplatin and Ov4Carbo carboplatin; higher = more cell survival). Conditions: dl922-947 oncolytic adenovirus co-treatment: none; compound concentration: 10 uM; 192 h.

SMILES	log2 surviving fraction
NCCCC(O)(P(=O)(O)O)P(=O)(O)O [Alendronate (Fosamax)]	-0.881
NCCc1c[nH]c2ccc(O)cc12 [Serotonin HCl]	1.22
COc1ccc(CC2c3cc(OC)c(OC)cc3CC[N+]2(C)CCC(=O)OCCCCCOC(=O)CC[N+]2(C)CCc3cc(OC)c(OC)cc3C2Cc2ccc(OC)c(OC)c2)cc1OC (stereo not given) [Atracurium besylate]	-0.0681
Nc1nc(F)nc2c1ncn2[C@@H]1O[C@H](COP(=O)(O)O)[C@@H](O)[C@@H]1O [Fludarabine Phosphate (Fludara)]	0.251
NCC[C@H](O)C(=O)N[C@@H]1C[C@H](N)[C@@H](O[C@H]2O[C@H](CN)[C@@H](O)[C@H](O)[C@H]2O)[C@H](O)[C@H]1O[C@H]1O[C@H](CO)[C@@H](O)[C@H](N)[C@H]1O [Amikacin sulfate]	0.897
O[C@@H]1CO[C@H]2[C@@H]1OC[C@@H]2O [Isosorbide]	-0.02
C=C[C@H]1CN2CC[C@H]1C[C@H]2[C@H](O)c1ccnc2ccc(OC)cc12 [Quinine hydrochloride dihydrate]	-0.664
Fc1ccc(C(c2ccc(F)cc2)N2CCN(C/C=C/c3ccccc3)CC2)cc1 [Flunarizine 2HCl]	-2.36
CC(=O)[C@H]1CC[C@H]2[C@@H]3C[C@H](C)C4=CC(=O)CC[C@]4(C)[C@H]3[C@@H](O)C[C@]12C [Medrysone]	0.185
O=C(NC(Cc1cc(=O)[nH]c2ccccc12)C(=O)O)c1ccc(Cl)cc1 (stereo not given) [Rebamipide]	-0.206
Nc1c2ccccc2nc2ccccc12 [9-Aminoacridine]	-11.4
Cn1c(=O)c2c(ncn2CC2OCCO2)n(C)c1=O [Doxofylline]	-0.618
CCOc1ccccc1OC(c1ccccc1)C1CNCCO1 (stereo not given) [Reboxetine mesylate]	0.222
CCC(=O)NCC[C@@H]1CCc2ccc3c(c21)CCO3 [Ramelteon (TAK-375)]	1.31
Cc1nc2n(c(=O)c1CCN1CCC(c3noc4cc(F)ccc34)CC1)CCCC2O (stereo not given) [Paliperidone (Invega)]	-0.409
NCCc1ccc(O)c(O)c1 [Dopamine hydrochloride (Inotropin)]	-0.908
C#CCC(Cc1cnc2nc(N)nc(N)c2n1)c1ccc(C(=O)N[C@@H](CCC(=O)O)C(=O)O)cc1 (stereo not given in full) [Pralatrexate (Folotyn)]	-0.765
CN(CCOc1ccc(NS(C)(=O)=O)cc1)CCc1ccc(NS(C)(=O)=O)cc1 [Dofetilide (Tikosyn)]	0.763
Cc1cc(=O)n(-c2ccccc2)n1C [Antipyrine]	0.427
C[C@H](CCC(=O)O)[C@H]1CC[C@H]2[C@@H]3[C@@H](O)C[C@@H]4C[C@H](O)CC[C@]4(C)[C@H]3CC[C@]12C [Ursodiol (Actigal Urso)]	0.8

SMILES	log2 surviving fraction
O=S(=O)(O)NC1CCCCC1 [Cyclamic  acid]	-1.13
COc1ccc2cc1Oc1ccc(cc1)C[C@H]1c3c(cc4c(c3Oc3cc5c(cc3OC)CCN(C)[C@@H]5C2)OCO4)CCN1C [Cepharanthine]	-2.67
O=c1[nH]cnc2c1ncn2[C@H]1CC[C@@H](CO)O1 [Didanosine (Videx)]	0.375
Fc1ccc([C@@H]2CCNC[C@H]2COc2ccc3c(c2)OCO3)cc1 [Paroxetine HCl]	-9.21
CC(C)NCC(O)COc1ccc(COCCOC(C)C)cc1 (stereo not given) [Bisoprolol]	-0.154
CC(=O)O[C@H]1C[C@@H]2CC[C@@H]3[C@H](CC[C@@]4(C)[C@H]3C[C@H]([N+]3(C)CCCCC3)[C@@H]4OC(C)=O)[C@@]2(C)C[C@@H]1N1CCCCC1 [Vecuronium Bromide]	0.0581
CCCCOc1cc(C(=O)NCCN(CC)CC)c2ccccc2n1 [Dibucaine HCL]	-0.151
CNC(=O)CN(CCN(CCN(CC(=O)O)CC(=O)NC)CC(=O)O)CC(=O)O.O.[Gd] [Gadodiamide (Omniscan)]	-0.508
COc1cc2nc(N(C)CCCNC(=O)C3CCCO3)nc(N)c2cc1OC (stereo not given) [Alfuzosin hydrochloride (Uroxatral)]	0.218
CCOC(=O)c1c(C)n(C)c2ccc(O)cc12 [Mecarbinate]	1.09
COc1ccc(C2CNC(=O)C2)cc1OC1CCCC1 (stereo not given) [Rolipram]	1.03
CCC1=C[C@@H]2CN(C1)Cc1c([nH]c3ccccc13)[C@@](C(=O)OC)(c1cc3c(cc1OC)N(C)[C@H]1[C@@](O)(C(=O)OC)[C@H](OC(C)=O)[C@]4(CC)C=CCN5CC[C@]31[C@@H]54)C2 [Vinorelbine (Navelbine)]	-7.12
CC/C(=C(/CC)c1ccc(O)cc1)c1ccc(O)cc1 [Diethylstilbestrol (Stilbestrol)]	-1.22
O=NN(CCCl)C(=O)NC1CCCCC1 [Lomustine (CeeNU)]	0.437
COc1cc(/C=C/C(=O)CC(=O)/C=C/c2ccc(O)c(OC)c2)ccc1O [Curcumin]	-4.65
O=C1NC(=O)C(c2ccccc2)(c2ccccc2)N1 [Phenytoin (Lepitoin)]	-0.643
CCCC(=O)OCOC(=O)C1=C(C)NC(C)=C(C(=O)OC)C1c1cccc(Cl)c1Cl (stereo not given) [Cleviprex (Clevidipine)]	0.526
O=P(O)(O)C(O)(Cn1ccnc1)P(=O)(O)O [Zoledronic Acid (Zoledronate)]	0.234
CC1(C)S[C@@H]2[C@H](NC(=O)[C@H](N)c3ccccc3)C(=O)N2[C@H]1C(=O)O [Ampicillin sodium]	-0.0774
Cc1c(C(=O)NN2CCCCC2)nn(-c2ccc(Cl)cc2Cl)c1-c1ccc(Cl)cc1	-3.7
